Whole data set: some 16,000 sequences, median “Z-score” near -0.37, cut for the highest 2% near 3.1. The list shows a part of the results.
test system: RBM10 RRM1-ZnF-RRM2 (GST-tagged construct); assay: RNAcompete 7-mer binding Z-score; higher = stronger binding preference
Method in brief: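 A designed pool of 241 399 RNAs, each up to 41 nt and transcribed from microarray-derived DNA templates, was used at 1.5 nmol with 20 pmol of GST-tagged RBM10 constructs. The mixture, in 1 ml Hepes pH 7.8 buffer with KCl, NaCl, glycerol, DTT, BSA and glutathione Sepharose beads, was held 30 min at 4°C and then washed four times for 2 min at 4°C. Bound RNA was read out by microarray hybridisation, and enrichment of each heptamer motif was scored as a one-sided Z-score over the probes carrying it.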

Sequence | RNAcompete 7-mer binding Z-score
UGGAUUG | 1.37
AUAAACU | -0.537
GCCCGAU | -0.679
CAAUCAU | -0.562
UUCAUGA | -0.581
UAGGGGC | 2.34
UCUUGUU | -0.766
UAUCACU | -0.803
GUACGAA | 0.308
GCUGGGC | 0.567
CGUGCCC | -0.548
UCCCGCA | -0.726
AUGUAUA | 0.0204
UUGCACC | -0.632
AACUGCG | -0.344
UGUACCG | -0.304
CCUCUCU | -0.854
AGUCGCG | -0.0634
UGCGACC | -0.635
AGCCACC | -0.715
CAUUGUG | -0.213
GCAGCGG | 2.14
AAACUGU | -0.442

Sequence | RNAcompete 7-mer binding Z-score
UGGCCAA | -0.125
UUCAUGC | -0.61
AAGGCCU | -0.195
GUUGACG | 0.396
AACAAUG | 0.363
GGACAAG | 2.12
AGUGUCC | -0.482
CCGAACG | -0.224
GUGUUCC | -0.537
CUAACCC | -0.766
GCGGCAA | 0.592
AAGGUCC | 0.76
UGAAGGA | 2.95
GUAGUAC | 0.399
UCUGGAG | 0.0641
AGAGGGC | 1.02
AAAGAGC | 0.377
GUUGAAC | 0.119
GGCUCAA | -0.122
ACGACGG | 1.08
CAGGUCU | -0.606
CCUCGGU | -0.446
AACGUAC | -0.384

Sequence | RNAcompete 7-mer binding Z-score
GCGUGUU | -0.224
CGACUGU | -0.774
UGGGCAU | 1.6
GAUAUUG | 0.283
ACGCGAC | -0.384
UAAACCU | -0.708
CCCGAUU | -0.854
CUCAGAA | -0.446
UCGCGUC | -0.449
UUCGCAA | -0.817
UCAAGUG | -0.0488
AUACUCG | -0.668
AAGUAAG | 0.927
CACGGGG | 2.77
UAUAAUA | -0.471
CACGAAC | -0.621
AUAGCGC | -0.315
CGCUGGC | -0.504
UUACGUC | -0.595
UCUAUUG | -0.788
CUUCCCU | -0.876
UUAUUGC | -0.661
UAGAAGU | 0.319

Sequence | RNAcompete 7-mer binding Z-score
CUGGCGU | -0.213
ACCGACG | -0.296
CCGCUCA | -0.734
UGCUAAA | -0.42
CUUCACA | -0.846
AACAGGG | 3.73
CCAUACG | -0.606
CCUGUUU | -0.974
UUCUAAU | -0.723
UUGGGUA | 1.95
UAGUUGA | 0.0859
GGACUGA | 0.814
CCGCUAU | -0.872
AGGCGUC | 0.0495
CCCAAUU | -0.744
AUGGGAA | 4.29
GGCGAUG | 2.16
CCAGACA | -0.526
UUCGCAG | -0.366
CAGGCAG | 1.17
AUCACCC | -0.752
UGCGUCA | -0.475
AGAUAGC | -0.271

Sequence | RNAcompete 7-mer binding Z-score
ACUACGU | -0.471
UCUCUCA | -0.836
AACCAGU | -0.235
ACGCAAC | -0.479
GUUGGAC | 1.04
CUAAUAU | -0.533
AGUCUAG | -0.067
UUCGGAG | 0.188
UGUUAUG | -0.38
UGAACGC | -0.0925
ACACGUC | -0.657
GAUUUAA | -0.333
GCAGGCA | 0.833
CAUUCUA | -0.821
GGUACGG | 2.47
CUUAUCU | -0.839
UUGAUUU | -0.602
GAGAUUA | 0.385
UCUAGCA | -0.712
AUCACGC | -0.442
GCUUGUC | -0.821
UAUUCUC | -0.672
AGCCCUA | -0.828

Sequence | RNAcompete 7-mer binding Z-score
CCUAUUU | -0.996
AAAUUCC | -0.737
UGCGAAC | 0.0131
AUCCUUA | -0.697
GACCCAC | -0.803
GCUUACC | -0.646
AUCGAAC | -0.26
UCACUGC | -0.785
GAACGGG | 4.29
GCUGUCA | -0.628
AACCCAU | -0.839
GUGAACU | 0.173
CCGCACC | -0.664
AGAGGAU | 1.34
ACCCAUA | -0.843
UAGCUAG | -0.216
GACAGCC | -0.5
CAACGCA | -0.5
UGUGAGC | 0.184
UCGUAAC | -0.486
GUGCUAU | -0.202
CUCUCUC | -0.763
CUAAGCG | -0.442

Sequence | RNAcompete 7-mer binding Z-score
GAGUUGG | 2.91
AGCCAUG | -0.464
AAAGGAA | 3.51
UCAGGCU | -0.246
AAUCUAA | -0.515
GUGCGAC | 0.294
CUUUGAG | -0.664
AACACCG | -0.173
GCGGAUG | 1.64
UCCGCUG | -0.755
CGGAUGG | 1.87
UACUUUA | -0.948
CUCCUGU | -0.876
ACAUAUU | -0.646
GCCUCUG | -0.781
CCCGUGG | 0.312
GAAUAAU | -0.176
CAGAGGU | 1.6
AGCUCUU | -0.836
GGUUUUC | 0.417
CGUUGGU | 0.363
GUACACG | 0.472
GCUUGCU | -0.737

Sequence | RNAcompete 7-mer binding Z-score
AGUUCGG | 0.202
CACGUGA | -0.0525
CGCUUGA | -0.821
GGUGAAU | 1.48
UGGAGCG | 2.28
AGCGUCA | -0.235
GACAGCG | 0.385
AUAUAAU | -0.366
GGGAUCA | 2.44
CCGGCUC | -0.548
CGGUAAA | 0.352
CAGAGCG | 1.02
GAGAAUA | 0.603
UGCUAGG | 0.355
CGUAUCG | -0.34
UUUAGAA | -0.621
UGUGCGG | 1.33
GGGAAUG | 3.43
AAAAUCU | -0.606
UUAUCCC | -0.748
UUGGACG | 0.949
CUUAUUU | -0.854
CAAGACU | -0.402
